Measurements published in patent US20250051476A1 (ABDERA THERAPEUTICS, published 2025).

T1: human DLL3 on cells (human, UniProt Q9NYJ7 27-618)
T1 sequence (looked up): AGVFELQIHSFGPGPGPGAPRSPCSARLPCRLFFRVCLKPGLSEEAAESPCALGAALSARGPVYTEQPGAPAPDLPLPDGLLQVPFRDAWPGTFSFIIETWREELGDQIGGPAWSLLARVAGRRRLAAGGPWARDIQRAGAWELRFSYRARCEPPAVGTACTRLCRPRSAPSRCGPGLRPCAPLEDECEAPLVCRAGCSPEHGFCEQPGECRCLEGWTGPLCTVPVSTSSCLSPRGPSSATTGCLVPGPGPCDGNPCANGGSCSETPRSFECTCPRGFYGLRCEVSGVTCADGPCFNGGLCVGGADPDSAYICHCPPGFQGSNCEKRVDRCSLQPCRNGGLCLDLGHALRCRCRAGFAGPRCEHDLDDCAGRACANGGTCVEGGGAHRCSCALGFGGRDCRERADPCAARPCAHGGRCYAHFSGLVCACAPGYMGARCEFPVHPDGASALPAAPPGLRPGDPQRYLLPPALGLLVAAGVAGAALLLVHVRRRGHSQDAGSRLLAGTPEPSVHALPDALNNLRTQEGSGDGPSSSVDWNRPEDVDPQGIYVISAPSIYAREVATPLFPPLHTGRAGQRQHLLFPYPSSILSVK


molecular target: T1, human DLL3 on cells; assay: cell-based or functional assay

| Binder | HEK-DLL3 Internalization FOI [FOI] |
| --- | --- |
| Clone 24 VHH-Fc (wildtype Fc/modified hinge) (Fc fusion) QVQYVESGGGLVQPGGSLRLSCAASGFTFSSYRINWYRQPPGKGRELVGSITDTGSTNYADSVKGRFTISRDNAKNTVYLQMSSLKPEDTAVYYCRAPTIAAYWGQGTQVTVSS[human IgG1 Fc with C220S (EU numbers) not written out] | 6.67 |
| Clone 100 VHH-Fc (wildtype Fc/modified hinge) (Fc fusion) QVQLVESGGGSVQPGGSLRLSCAASGIVFNSDVMGWYRQVPGKPRELVATITGGGSTNYATSVKGRFTISRDNAKNTVYLQMNSLRPEDTAVYYCNGRRGDSMLAFWAQGTQVTVSS[human IgG1 Fc with C220S (EU numbers) not written out] | 8.78 |
| Clone 107 VHH-Fc (wildtype Fc/modified hinge) (Fc fusion) QVQLVESGGGLVQAGDSLRLSCVASDRTFSSYAVGWFRQAPGKEREFVAAISWNGGRTLYTDSVTGRFTISRDNAKSTVYLQMNGLKPEDTAVYYCAARPAAPTRRLEYDYWGQGTQVTVSS[human IgG1 Fc with C220S (EU numbers) not written out] | 8.14 |
| Clone 126 VHH-Fc (wildtype Fc/modified hinge) (Fc fusion) QVQLVESGGGMVQPGGSLRLSCAASGITFSMYSMSWYRQPPGKQRELVAATTTFGSTNYADSVKGRFTISRDNAKNTVYLQMNSLKPEDTAVYLCNARFTSEEYWGQGTQVTVSS[human IgG1 Fc with C220S (EU numbers) not written out] | 7.56 |
| Clone 186 VHH-Fc (wildtype Fc/modified hinge) (Fc fusion) QVQVVESGGGLVQPGGSLTLSCAASGFDFSTYTVNWYRQAPGKEREKVARISSTGTTTNYANSAKGRFTLSRDNAKNRVYLQMNNLKPEDTAVYFCNFERFDSNYWGQGTQVTVSS[human IgG1 Fc with C220S (EU numbers) not written out] | 7.72 |
